The whole screen tested about 190,000 compounds, of which about 270 (0.14%) were called active. Inconclusive means that the source gave no clear call. Such entries were picked first, then a sample of the others.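 Rule for the calls: active = GTP binding activity at least 20% away from the 100% baseline, either lowered as inhibitor or raised as activator; inconclusive = flagged as likely green fluorescent, judged across all proteins in the well; inactive = the rest.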
Biological target: GTPase HRas (Homo sapiens) (UniProt P01112)
Assay: HRas wt fluorescent GTP binding changes, either direction – biochemical, wildtype, bead-based flow cytometry, multiplex, primary screen (AID 759);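 note: 0% = unlabeled GTP competition control and 100% = no-compound control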
Settings: GST-Ras wt beads, Bodipy-FL-GTP binding, at 10 µM, actives lie on both sides

UniProt P01112, sequence (P01112 whole entry, looked up): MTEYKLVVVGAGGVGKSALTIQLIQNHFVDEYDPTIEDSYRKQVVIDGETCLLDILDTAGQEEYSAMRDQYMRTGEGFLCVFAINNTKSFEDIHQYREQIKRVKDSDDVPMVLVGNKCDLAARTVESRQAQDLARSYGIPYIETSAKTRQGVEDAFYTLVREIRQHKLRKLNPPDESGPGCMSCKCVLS

GTP binding activity, inactive:
S=c1[nH]nc(-c2ccco2)n1-c1ccc(Cl)cc1 81%
COC(=O)c1nc(NC(=O)c2ccc(F)cc2)n[nH]1 98%
CC(C)N(C(=O)CS(=O)(=O)c1ccc(Cl)c(Cl)c1)C(C)C 94%
COc1ccc(C2N(Cc3ccccc3)CC(=O)N2/N=C(\C)c2ccccc2)cc1 (stereo unspecified) 99%
O=C(NCc1ccccc1Cl)C1CCC(CNc2nc(=S)[nH]c3ccccc23)CC1 (stereo unspecified) 86%
CCCNC(=O)CN(c1cccc(F)c1)S(C)(=O)=O 102%

GTP binding activity, inconclusive:
CCCN(C(=O)CSc1nnc(-c2ccoc2C)n1N)C1CCS(=O)(=O)C1 (stereo unspecified) 104%
O=C(NCc1ccncc1)C(=O)NCC(c1ccco1)N1CCN(c2ccc(F)cc2)CC1 (stereo unspecified) 101%
C=CCNC(=O)/C(=C\C=C\c1ccccc1)NC(=O)c1ccc(OCCCC)cc1 93%
CCOc1ccc(NC(=O)c2ccc(NC(=O)COC(=O)Cc3ccc(OC)cc3)cc2)cc1 94%
CCc1sc(N2C(=O)C3C4CCC(C4=C(C)C)C3C2=O)nc1-c1ccccc1 (stereo unspecified) 95%
COC(=O)c1sc2ncccc2c1OCc1ccccc1Cl 94%
Nc1cccc(S(=O)(=O)c2cccc(N)c2)c1 44%
Clc1ccccc1CSc1nnc(/C=C/c2ccccc2)o1 93%
O=C(OCc1cn(-c2ccc(Cl)c(Cl)c2)nn1)c1ccccc1 90%
CCOc1nc(NC(=O)NS(=O)(=O)c2ccccc2F)nc(-c2ccccc2)n1 93%
Cc1ccc(S(=O)(=O)c2c(C)cc(C)nc2Cl)c(C)c1 94%
COc1ccccc1N(CC(=O)Nc1cc(C)on1)S(=O)(=O)c1ccc(Cl)cc1 92%
CCC(C)c1ccc(NC(=O)CSc2nncn2N)cc1 (stereo unspecified) 106%
CC1(C)Cc2cccc(OCC(O)CNCc3ccccn3)c2O1 (stereo unspecified) 104%
CCCNC(=O)Cn1nc(C(F)(F)F)c2c1CCCC2 100%
Cc1onc(-c2c(Cl)cccc2Cl)c1C(=O)NCC1CCCO1 (stereo unspecified) 105%
CC(C)n1c(C(O)c2ccccc2)nc2ccccc21 (stereo unspecified) 103%
Cc1ccc(Oc2ncccc2/C=N/OCc2ccc(Cl)c(Cl)c2)cc1 91%
O=C(Nc1ccc(-c2ccc([N+](=O)[O-])cc2)cc1)c1ccccc1F 97%
N#CCCCCN1c2cccc3cccc(c23)S1(=O)=O 95%

From PubChem BioAssay AID759 (NMMLSC, 2007)
